Data published in the supplement of paper PMC4604168 (melanoma cell lines).
The other results are listed elsewhere or left out. Many values rest on one well or one pass, so single values are uncertain.

system: WM451Lu; assay: cell count relative to DMSO control; melanoma cells; higher = more viable cells; conditions: library dose: low library concentration; 72 h
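Further: cell number obtained by counting DAPI-stained nuclei in high-throughput microscope images with image analysis software, screen run in 1,536-well plates.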

Structure (SMILES) | cell count
CC(=O)c1c(C)c2cnc(Nc3ccc(N4CCNCC4)cn3)nc2n(C2CCCC2)c1=O [palbociclib] + Cn1cc(/C=C2\C(=O)Nc3cccnc32)c2ccccc21 [GW441756] (first compound 0.04 µM, partner dose 0.4 µM) | 73.6%
CO[C@H]1C[C@@H]2CC[C@@H](C)[C@@](O)(O2)C(=O)C(=O)N2CCCC[C@H]2C(=O)O[C@H]([C@H](C)C[C@@H]2CC[C@@H](OCCO)[C@H](OC)C2)CC(=O)[C@H](C)/C=C(\C)[C@@H](O)[C@@H](OC)C(=O)[C@H](C)C[C@H](C)/C=C/C=C/C=C/1C [everolimus] + Cn1nnc2c(C(N)=O)ncn2c1=O [temozolomide] (first compound 0.02 µM, partner dose 2 µM) | 90.3%
CC(=O)O[C@@]12CO[C@@H]1C[C@H](O)[C@@]1(C)C(=O)[C@H](O)C3=C(C)[C@@H](OC(=O)[C@H](O)[C@@H](NC(=O)OC(C)(C)C)c4ccccc4)C[C@@](O)([C@@H](OC(=O)c4ccccc4)[C@H]21)C3(C)C [Docetaxel] + NC(=O)Nc1cc(-c2cccc(F)c2)sc1C(=O)N[C@H]1CCCNC1 [AZD7762] (first compound 0.0001 µM, partner dose 0.02 µM) | 65.1%
Nc1nc(F)nc2c1ncn2[C@@H]1O[C@H](CO)[C@@H](O)[C@@H]1O [fludarabine] + C=CCn1c(=O)c2cnc(Nc3ccc(N4CCN(C)CC4)cc3)nc2n1-c1cccc(C(C)(C)O)n1 [MK1775] (first compound 0.2 µM, partner dose 0.02 µM) | 42.8%
Nc1ccn([C@@H]2O[C@H](CO)[C@@H](O)C2(F)F)c(=O)n1 [gemcitabine] + COc1ccc(COc2ccc(Cc3cnc(N)nc3N)cc2OC)cc1 [GW2580] (first compound 0.0004 µM, partner dose 1 µM) | 98%
Nc1ncn([C@H]2C[C@H](O)[C@@H](CO)O2)c(=O)n1 [decitabine] + CC(C)(C)c1cnc(CSc2cnc(NC(=O)C3CCNCC3)s2)o1 [SNS-032] (first compound 0.1 µM, partner dose 0.01 µM) | 99.9%
Nc1nc(F)nc2c1ncn2[C@@H]1O[C@H](CO)[C@@H](O)[C@@H]1O [fludarabine] + Nc1ncn([C@H]2C[C@H](O)[C@@H](CO)O2)c(=O)n1 [decitabine] (first compound 0.2 µM, partner dose 0.1 µM) | 57.6%
CC(=O)O[C@@]12CO[C@@H]1C[C@H](O)[C@@]1(C)C(=O)[C@H](O)C3=C(C)[C@@H](OC(=O)[C@H](O)[C@@H](NC(=O)OC(C)(C)C)c4ccccc4)C[C@@](O)([C@@H](OC(=O)c4ccccc4)[C@H]21)C3(C)C [Docetaxel] + O=C(O)C(=O)Nc1sc2c(c1C(=O)O)CCNC2 [TCS401] (first compound 0.0001 µM, partner dose 1.66667 µM) | 59.9%
Nc1ccn([C@@H]2O[C@H](CO)[C@@H](O)C2(F)F)c(=O)n1 [gemcitabine] + CCN(CC)CCCCNc1ncc2cc(-c3cc(OC)cc(OC)c3)c(NC(=O)NC(C)(C)C)nc2n1 [PD173074] (first compound 0.0004 µM, partner dose 0.1 µM) | 104%
CC(=O)c1c(C)c2cnc(Nc3ccc(N4CCNCC4)cn3)nc2n(C2CCCC2)c1=O [palbociclib] + CCN(CC)CCCCNc1ncc2cc(-c3cc(OC)cc(OC)c3)c(NC(=O)NC(C)(C)C)nc2n1 [PD173074] (first compound 0.04 µM, partner dose 0.1 µM) | 78.3%
Nc1ncn([C@H]2C[C@H](O)[C@@H](CO)O2)c(=O)n1 [decitabine] + COc1cc2c(Oc3ccc4[nH]c(C)cc4c3F)ncnc2cc1OCCCN1CCCC1 [cediranib] (first compound 0.1 µM, partner dose 0.4 µM) | 96.2%
CC(=O)c1c(C)c2cnc(Nc3ccc(N4CCNCC4)cn3)nc2n(C2CCCC2)c1=O [palbociclib] + Cc1nc(Nc2ncc(C(=O)Nc3c(C)cccc3Cl)s2)cc(N2CCN(CCO)CC2)n1 [dasatanib] (first compound 0.04 µM, partner dose 0.004 µM) | 73.2%
CO[C@H]1C[C@@H]2CC[C@@H](C)[C@@](O)(O2)C(=O)C(=O)N2CCCC[C@H]2C(=O)O[C@H]([C@H](C)C[C@@H]2CC[C@@H](OCCO)[C@H](OC)C2)CC(=O)[C@H](C)/C=C(\C)[C@@H](O)[C@@H](OC)C(=O)[C@H](C)C[C@H](C)/C=C/C=C/C=C/1C [everolimus] + C=CCNC1=C2C[C@@H](C)C[C@H](OC)[C@H](O)[C@@H](C)/C=C(\C)[C@H](OC(N)=O)[C@@H](OC)/C=C\C=C(/C)C(=O)NC(=CC1=O)C2=O [Tanespimycin] (first compound 0.02 µM, partner dose 0.002 µM) | 74.1%
CC(=O)O[C@@]12CO[C@@H]1C[C@H](O)[C@@]1(C)C(=O)[C@H](O)C3=C(C)[C@@H](OC(=O)[C@H](O)[C@@H](NC(=O)OC(C)(C)C)c4ccccc4)C[C@@](O)([C@@H](OC(=O)c4ccccc4)[C@H]21)C3(C)C [Docetaxel] + Cc1ccc(NC(=O)c2cccc(N(C)C)c2)cc1NC(=O)c1ccc(O)cc1 [ZM336372] (first compound 0.0001 µM, partner dose 2 µM) | 67.7%
CC(=O)O[C@@]12CO[C@@H]1C[C@H](O)[C@@]1(C)C(=O)[C@H](O)C3=C(C)[C@@H](OC(=O)[C@H](O)[C@@H](NC(=O)OC(C)(C)C)c4ccccc4)C[C@@](O)([C@@H](OC(=O)c4ccccc4)[C@H]21)C3(C)C [Docetaxel] + O=C1NC(=O)/C(=C/c2ccc(-c3ccc(F)cc3O)o2)S1 [AS252424] (first compound 0.0001 µM, partner dose 1 µM) | 44.7%
Nc1ncn([C@H]2C[C@H](O)[C@@H](CO)O2)c(=O)n1 [decitabine] + C[C@]1(c2nc3c(C(N)=O)cccc3[nH]2)CCCN1 [Veliparib] (first compound 0.1 µM, partner dose 1.4 µM) | 99.5%
Nc1ncn([C@H]2C[C@H](O)[C@@H](CO)O2)c(=O)n1 [decitabine] + COc1ccc(Cl)c(Nc2nc3ccccc3nc2NS(=O)(=O)c2cccc(NC(=O)C(C)(C)N)c2)c1 [XL147] (first compound 0.1 µM, partner dose 0.8 µM) | 102%
CO[C@H]1C[C@@H]2CC[C@@H](C)[C@@](O)(O2)C(=O)C(=O)N2CCCC[C@H]2C(=O)O[C@H]([C@H](C)C[C@@H]2CC[C@@H](OCCO)[C@H](OC)C2)CC(=O)[C@H](C)/C=C(\C)[C@@H](O)[C@@H](OC)C(=O)[C@H](C)C[C@H](C)/C=C/C=C/C=C/1C [everolimus] + N#Cc1c(O)c2c(-c3ccc(-c4ccccc4O)cc3)csc2[nH]c1=O [A769662] (first compound 0.02 µM, partner dose 2 µM) | 82.7%
Nc1ccn([C@@H]2O[C@H](CO)[C@@H](O)C2(F)F)c(=O)n1 [gemcitabine] + OCc1c[nH]c2ccccc12 [Indole-3-carbinol] (first compound 0.0004 µM, partner dose 0.8 µM) | 93.8%
CO[C@H]1C[C@@H]2CC[C@@H](C)[C@@](O)(O2)C(=O)C(=O)N2CCCC[C@H]2C(=O)O[C@H]([C@H](C)C[C@@H]2CC[C@@H](OCCO)[C@H](OC)C2)CC(=O)[C@H](C)/C=C(\C)[C@@H](O)[C@@H](OC)C(=O)[C@H](C)C[C@H](C)/C=C/C=C/C=C/1C [everolimus] + Oc1cc(-c2nc(-c3ccccc3)[nH]c2-c2ccncc2)ccc1Cl [L779450] (first compound 0.02 µM, partner dose 0.2 µM) | 70.3%
Nc1nc(F)nc2c1ncn2[C@@H]1O[C@H](CO)[C@@H](O)[C@@H]1O [fludarabine] + NC(=O)Nc1cc(-c2cccc(F)c2)sc1C(=O)N[C@H]1CCCNC1 [AZD7762] (first compound 0.2 µM, partner dose 0.02 µM) | 52.4%
Nc1nc(F)nc2c1ncn2[C@@H]1O[C@H](CO)[C@@H](O)[C@@H]1O [fludarabine] + COc1cc(Nc2ncc(F)c(Nc3ccc4c(n3)NC(=O)C(C)(C)O4)n2)cc(OC)c1OC [Tamatinib] (first compound 0.2 µM, partner dose 0.4 µM) | 48.7%
Nc1ccn([C@@H]2O[C@H](CO)[C@@H](O)C2(F)F)c(=O)n1 [gemcitabine] + O=C(Nc1cccc(Cl)c1)Nc1ncc(CCNc2ncnc3ccsc23)s1 [SNS314] (first compound 0.0004 µM, partner dose 0.0008 µM) | 91.6%
CC(=O)O[C@@]12CO[C@@H]1C[C@H](O)[C@@]1(C)C(=O)[C@H](O)C3=C(C)[C@@H](OC(=O)[C@H](O)[C@@H](NC(=O)OC(C)(C)C)c4ccccc4)C[C@@](O)([C@@H](OC(=O)c4ccccc4)[C@H]21)C3(C)C [Docetaxel] + CC(C)C[C@H](NC(=O)[C@H](Cc1ccccc1)NC(=O)c1cnccn1)B(O)O [Bortezomib] (first compound 0.0001 µM, partner dose 0.001 µM) | 55.8%
Nc1nc(F)nc2c1ncn2[C@@H]1O[C@H](CO)[C@@H](O)[C@@H]1O [fludarabine] + Cn1c(Nc2ccc(C(F)(F)F)cc2)nc2cc(Oc3ccnc(-c4ncc(C(F)(F)F)[nH]4)c3)ccc21 [CHIR265] (first compound 0.2 µM, partner dose 0.08 µM) | 54.4%
